{
  "source": "PubChem BioAssay AID1461",
  "about": "(National Center for Advancing Translational Sciences (NCATS), 2008)",
  "note": "In all, about 220,000 compounds went through this assay and about 2,300 (1%) were called active. This list was built around the results that the source calls inconclusive (neither active nor inactive); the mix of calls is not that of the screen. Calls come from the whole dose curve; as a rule, active = well fitted inhibition curve with a large enough effect; inconclusive = small, poorly fitted or top-dose-only effect, or effect the other way; inactive = no such curve, though single readings can be large or run the other way. Potencies of inconclusive entries are left out as doubtful fits. Potency is the fitted concentration of half-maximal effect; tags give direction and shape of the fitted curve.",
  "data": [
    {"target": "Neuropeptide S receptor (Homo sapiens) (UniProt Q6W5P4)", "sequence (Q6W5P4 whole entry, looked up)": "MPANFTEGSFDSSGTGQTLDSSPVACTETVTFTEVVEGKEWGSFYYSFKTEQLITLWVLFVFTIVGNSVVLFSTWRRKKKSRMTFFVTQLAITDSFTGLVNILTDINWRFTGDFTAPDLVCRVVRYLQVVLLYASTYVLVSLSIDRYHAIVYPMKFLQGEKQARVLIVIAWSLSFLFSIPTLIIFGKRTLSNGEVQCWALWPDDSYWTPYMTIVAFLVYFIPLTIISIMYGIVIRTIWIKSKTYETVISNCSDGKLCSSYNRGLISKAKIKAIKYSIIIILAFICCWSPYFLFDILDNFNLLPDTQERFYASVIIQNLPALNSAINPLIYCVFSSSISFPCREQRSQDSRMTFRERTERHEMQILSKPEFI", "assay": "qHTS Assay for Antagonists of the Neuropeptide S Receptor: cAMP Signal Transduction; note: nearly all actives have a fitted effect of over 50% in size", "settings": "CHO-NPSR cells, cAMP TR-FRET, antagonist mode; series mostly up to 38.3 µM", "values": [
      {"smiles": "O=C(Nc1ccccc1)Oc1ccc[nH]c1=O", "Potency": "inactive"},
      {"smiles": "COc1ccc(C(CCN(Cc2ccc(OC)c(OC)c2)C(=O)CCl)c2ccccc2)cc1", "note": "(stereo not drawn)", "Potency": "active: 5.01 µM"},
      {"smiles": "CC(C)(C)c1ccc(/C=N/NC(=O)Cc2c[nH]c3ccccc23)cc1", "Potency": "inconclusive [inhibitor, single point]"},
      {"smiles": "COc1ccc(NC(=S)Nc2cc(-c3ccccc3)[nH]n2)cc1Cl", "Potency": "inactive"},
      {"smiles": "N#Cc1c(N)sc(=S)c2c1CCCCC2", "Potency": "inactive"},
      {"smiles": "CCC(c1ccccc1)c1nc(-c2cccnc2)no1", "note": "(stereo not drawn)", "Potency": "inactive"},
      {"smiles": "Cc1sc2nc(SCC(=O)NCc3ccco3)n(-c3ccccc3)c(=O)c2c1C", "Potency": "inconclusive [activator, single point]"},
      {"smiles": "CC(=O)Oc1ccc(C(=O)Nc2cc(C)ccc2NC(=O)COc2ccccc2)cc1", "Potency": "inconclusive [inhibitor, single point]"},
      {"smiles": "COc1cc(N2CCCC2)c(OC)cc1/C=C(/C#N)c1ccc(Br)cc1", "Potency": "inconclusive [inhibitor, single point]"},
      {"smiles": "Cc1ccc(NC(=O)C2(NC(=O)c3cccc(N4C(=O)CSC4c4ccccc4)c3)CCCCC2)cc1", "note": "(stereo not drawn)", "Potency": "inconclusive [inhibitor, partial curve]"},
      {"smiles": "Cn1nc(-c2ccccn2)nc2c(=O)n(C)c(=O)nc1-2", "Potency": "active: 2.51 µM"},
      {"smiles": "CCOC(=O)/C=C/C(=O)Nc1cccc([N+](=O)[O-])c1", "Potency": "inconclusive [inhibitor, single point]"},
      {"smiles": "Cc1ccc(/C=C2\\SC(=S)N(CCC(=O)NNS(=O)(=O)c3ccc(C)cc3)C2=O)cc1", "Potency": "inactive"},
      {"smiles": "Cc1ccc(S(=O)(=O)N2CCN(c3nc(C(C)C)c4c(c3C#N)CC(C)(C)OC4)CC2)cc1", "Potency": "inconclusive [inhibitor, single point]"},
      {"smiles": "CCc1cc2c(C)ccc(C)c2nc1SCC(=O)Nc1c[nH]c(=O)[nH]c1=O", "Potency": "inconclusive [inhibitor, single point]"},
      {"smiles": "N#Cc1nc(-c2ccc(OCc3ccccc3)cc2)oc1NCCCn1ccnc1", "Potency": "inconclusive [inhibitor, single point]"},
      {"smiles": "CC1(C)CC(=O)C2=C(C1)N(CCN1CCOCC1)C1=C(C(=O)CC(C)(C)C1)C2c1cccc(Cl)c1", "Potency": "inconclusive [inhibitor, partial curve]"},
      {"smiles": "CSc1ccc2c(c1)N(CCC1CCCCN1C)c1ccccc1S2", "note": "(stereo not drawn)", "Potency": "active: 12.6 µM"},
      {"smiles": "O=C(NCCc1ccccc1)C(NS(=O)(=O)c1cccc2nsnc12)c1ccccc1", "note": "(stereo not drawn)", "Potency": "inactive"},
      {"smiles": "Cc1c(N=NC2=C(O)CC(C)(C)CC2=O)cc2c(c1[N+](=O)[O-])C(C)(C)CC2(C)C", "Potency": "inconclusive [inhibitor, single point]"},
      {"smiles": "CCC(CC)C(=O)Oc1c(Sc2ccccc2[N+](=O)[O-])c(C)nn1C(C)(C)C", "Potency": "inconclusive [inhibitor, single point]"},
      {"smiles": "CCCn1c(N)c(Sc2ccc(Cl)cc2)c(=O)n(CCC)c1=O", "Potency": "inconclusive [activator, partial curve]"},
      {"smiles": "COc1ccc(C2CC(O)(c3ccccc3)Oc3cc(OC)c(OC)c(OC)c32)cc1", "note": "(stereo not drawn)", "Potency": "inconclusive [inhibitor, single point]"},
      {"smiles": "CC(C)(Sc1ccc(CCN(CCCCC2CCCCC2)C(=O)NC2CCCCC2)cc1)C(=O)O", "Potency": "inconclusive [inhibitor, partial curve]"},
      {"smiles": "CCOC(=O)N1CCC(NC(=O)c2ccc(N3CCC4(CC3)OCCO4)c([N+](=O)[O-])c2)CC1", "Potency": "inactive"},
      {"smiles": "CCOC(=O)C1CCCN(C(=O)C(C)Oc2ccc(Cl)cc2Cl)C1", "note": "(stereo not drawn)", "Potency": "inactive"},
      {"smiles": "O=C1C(Cl)=C(NCCCO)C(=O)c2ccccc21", "Potency": "inactive"},
      {"smiles": "Cc1ccc(CNC(=O)c2oc3ccc(S(=O)(=O)N4CCC5(CC4)OCCO5)cc3c2C)cc1", "Potency": "inconclusive [inhibitor, single point]"},
      {"smiles": "CCC(C(=O)NC1CCCC1)N(C(=O)Cn1nnc(-c2ccc(OC)c(OC)c2)n1)C1CCCCC1", "note": "(stereo not drawn)", "Potency": "inconclusive [inhibitor, partial curve]"},
      {"smiles": "CC(C)NC(=S)N/N=C/c1cccs1", "Potency": "inconclusive [activator, partial curve]"},
      {"smiles": "CCCCc1nnc(NC(=O)CSc2nc(=O)cc(N)n2-c2cccc(C)c2)s1", "Potency": "inactive"},
      {"smiles": "CC/C(=C(/CC)c1ccc(O)cc1)c1ccc(O)cc1", "Potency": "inconclusive [inhibitor, single point]"},
      {"smiles": "CCOC(=O)c1sc(NC(=O)/C=C/c2ccccc2)nc1C", "Potency": "inconclusive [inhibitor, single point]"},
      {"smiles": "CCN(CC)c1ccc(/C=N/Nc2nc3ccccc3[nH]2)cc1", "Potency": "active: 5.01 µM"},
      {"smiles": "Cc1nn2c(N)c(C#N)cnc2c1-c1ccc(Cl)cc1", "Potency": "active: 7.94 µM"},
      {"smiles": "C=C(C)COc1ccc(-c2[nH]ncc2Oc2ccccc2OCC)c(O)c1", "Potency": "inconclusive [inhibitor, single point]"},
      {"smiles": "CC1=CC2=C(OC1N(C)C)c1cccc3cccc(c13)C2=O", "note": "(stereo not drawn)", "Potency": "inconclusive [inhibitor, single point]"},
      {"smiles": "COc1cccc(-c2nn(-c3ccccc3)cc2C(=O)n2nnc3ccccc32)c1", "Potency": "inconclusive [inhibitor, single point]"},
      {"smiles": "CN1/C(=C\\C(=O)C(F)F)C(C)(C)c2ccccc21", "Potency": "inactive"},
      {"smiles": "Clc1ccc(C2[C@H]3CN(Cc4cccnc4)[C@H](c4ccccc4)C34CC2(c2ccccc2)C4)cn1", "note": "(stereo partly drawn)", "Potency": "inconclusive [inhibitor, single point]"},
      {"smiles": "CC(=O)Nc1cccc(C(=O)OC(C(=O)c2ccc(C)cc2)c2ccccc2)c1", "note": "(stereo not drawn)", "Potency": "inconclusive [inhibitor, single point]"},
      {"smiles": "Cc1ccc(-c2nc3c(c(=O)c4ccccc4n3C)c(=O)n2Cc2ccco2)cc1", "Potency": "inconclusive [activator, partial curve]"},
      {"smiles": "CN1CCN(c2ccc(NC(=O)c3ccc(-c4ccc(Br)cc4)o3)cc2)CC1", "Potency": "inconclusive [inhibitor, single point]"},
      {"smiles": "CCC(C)(C)n1nnnc1CN(Cc1cccs1)Cc1cc2cc(OC)ccc2[nH]c1=O", "Potency": "inconclusive [inhibitor, partial curve]"},
      {"smiles": "COc1ccc(C(=O)COC(=O)c2ccccc2NS(=O)(=O)c2ccc(O)c([N+](=O)[O-])c2)cc1", "Potency": "inconclusive [activator, partial curve]"},
      {"smiles": "Cc1nn2c(-c3ccc(Cl)cc3)ccnc2c1-c1ccccc1", "Potency": "inconclusive [inhibitor, partial curve]"},
      {"smiles": "Cc1ccccc1C(=O)Nc1ccc(Br)c(C)n1", "Potency": "inactive"},
      {"smiles": "COc1cccc(C(=O)Oc2ccccc2/C=C\\C(=O)c2cc3ccccc3o2)c1", "Potency": "inconclusive [inhibitor, single point]"},
      {"smiles": "C/C(=C\\c1ccc(C(=O)O)cc1)c1ccc2c(c1)C(C)(C)CCC2(C)C", "Potency": "inconclusive [activator, single point]"},
      {"smiles": "CC1CCCCC12NC(=O)N(CC(=O)NC1CCCc3ccccc31)C2=O", "note": "(stereo not drawn)", "Potency": "inconclusive [inhibitor, partial curve, poor fit]"},
      {"smiles": "Cc1ccc(N=C2NC(=O)/C(=C/c3cccnc3)S2)cc1C", "Potency": "inconclusive [inhibitor, single point]"},
      {"smiles": "Cc1cc(NC(=O)CSc2nc(C(C)C)nc3sc4c(c23)CCC(C)C4)no1", "note": "(stereo not drawn)", "Potency": "inconclusive [activator, single point]"},
      {"smiles": "Cc1ccc(S(=O)(=O)N2CCN(c3nc4ccccc4nc3-n3nc(C)cc3C)CC2)cc1", "Potency": "inconclusive [inhibitor, single point]"},
      {"smiles": "Nc1ccc(CCNc2ncnc3c2ncn3C2OC(CO)C(O)C2O)cc1", "note": "(stereo not drawn)", "Potency": "inconclusive [inhibitor, full curve, poor fit]"},
      {"smiles": "O=C1CN(S(=O)(=O)c2ccc(Cl)cc2)CC(=O)N1CCc1ccccc1", "Potency": "inactive"},
      {"smiles": "O=C(NCc1ccccc1F)C1CCCN(C(=O)NC2CCCCC2)C1", "note": "(stereo not drawn)", "Potency": "inactive"},
      {"smiles": "CC(/C=C/c1ccccc1)=N\\Nc1nc2c(c(=O)[nH]c(=O)n2C)n1CCO", "Potency": "inactive"},
      {"smiles": "O=C(CSc1ccc(Cl)cc1)N1CCN(c2ccc([N+](=O)[O-])cc2Cl)CC1", "Potency": "inconclusive [inhibitor, single point]"},
      {"smiles": "CCOC(=O)c1sc2nc3c(SCCC(=O)O)cc(C(=O)c4cc(OC)ccc4O)cn3c(=O)c2c1C", "Potency": "active: 10 µM"},
      {"smiles": "C=CCn1c(Cc2cccs2)nnc1SCC(=O)Nc1ccc(C(=O)OCC)cc1", "Potency": "inconclusive [inhibitor, partial curve]"},
      {"smiles": "Cc1nc2ccccc2c(=O)n1/N=C/c1ccc([N+](=O)[O-])o1", "Potency": "inconclusive [activator, single point]"},
      {"smiles": "CC(C)(Oc1ccc(Cl)cc1)C(=O)Nc1ccc2oc(-c3ccncc3)nc2c1", "Potency": "inconclusive [inhibitor, single point]"},
      {"smiles": "Cc1ccccc1C(=O)NNC(=S)NC(=O)c1cccnc1", "Potency": "inactive"},
      {"smiles": "CCCc1cc(=O)n2[nH]c(-c3ccc(C)cc3)cc2n1", "Potency": "inactive"},
      {"smiles": "Cc1cc(C)cc(OCC(=O)Nc2ccc3c(c2)C(=O)c2ccccc2C3=O)c1", "Potency": "inconclusive [inhibitor, single point]"},
      {"smiles": "O=C(Nc1cc(Cl)cc(Cl)c1)N1CCCN(Cc2ccccc2)CC1", "Potency": "inconclusive [activator, single point]"},
      {"smiles": "OC(CN1CCN(c2cccc(Cl)c2)CC1)C(c1ccccc1)c1ccccc1", "note": "(stereo not drawn)", "Potency": "inconclusive [inhibitor, partial curve]"},
      {"smiles": "Cc1ccc(-n2nnnc2SCC(=O)c2cc(C)n(-c3cc(C)on3)c2C)c(C)c1", "Potency": "inconclusive [inhibitor, partial curve, poor fit]"}
    ]}
  ]
}
